Data as given in the RNAGym collection of RNA variant scans (doi:10.1073/pnas.2313332121).
Variants at the floor of the assay are shown more often than the library holds them.

B1: TPR 5TU (parent)
chain: GGAUCUUCUCGAUCUAACAAAAAAGACAAAUCUGCCACAAAGCUUGAGAGCAUCUUCGGAUGCAGAGGCGGCAGCCUUCGGUGGCGCGAUAGCGCCAACGUUCUCAACUAUGACACGCAAAACGCGUGCUCCGUUGAAUGGAGUUUAUCAUG

Variants of: B1
Test: polymerase ribozyme fitness, log enrichment relative to wild type (log ratio); higher = more active; in vitro selection for triplet polymerase activity
Method in brief: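 Genotype fitness is the logarithm of its enrichment divided by wild-type enrichment, using inverse-variance-weighted averages of replicates. That logarithm is base 2. Enrichment was measured by Illumina sequencing of input and output libraries from one triplicate in vitro selection round, with frozen incubation at −7 °C, on PCR-built, transcribed mutant libraries of each subunit of a heterodimeric triplet polymerase ribozyme, retaining genotypes with ≥10 input reads and ≥1 read per output.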

Variant | polymerase ribozyme fitness (log ratio)
A40U G94C C108G | ≤ -4.2
A39G G94C | -2.32
A41G C57G G88C U90G A106G G133A | ≤ -4.2
A41C A60G C75A A138U G141U U146C U148C | ≤ -4.2
A40U G58C A113C G124A | -2.93
A40C U44G U53A C87G A107U A121U G124C U130A G143A | ≤ -4.2
A40G G58C C114U C118A U144C | ≤ -4.2
A41C C57A C87U C114G | -3.91
A41U A49C C57U C85U C93A G141U | ≤ -4.2
A41U U53A G74C U82C | ≤ -4.2
A40C G92A U109C G141U | ≤ -4.2
A41C C116G | -0.175
A40U G42A A49U G58A U61G A97U A115G A119U | ≤ -4.2
A41G C75G | -2.98
A41C A49U U53A A60C G88U A122U U134A | ≤ -4.2
A41C G81C G84U A107G U135A G141A | ≤ -4.2
A39U C43A G50A C72U G86A U101A G117U | ≤ -4.2
A40G U56G G80C C87A | ≤ -4.2
A40U C96U A110C A150U | ≤ -4.2
A40G C103G | ≤ -4.2
A39U A49G G50A C75G C93G C103G C123A | ≤ -4.2
A39U A60G U77G C79U C85U | ≤ -4.2
A40C G50U U148A | ≤ -4.2
A40C G42A A49G G62C C93A | ≤ -4.2

Variant | polymerase ribozyme fitness (log ratio)
A39U C76A G86C G126A C132U U134A | ≤ -4.2
A39U C72A G83A A137U | ≤ -4.2
A41G U78C C116G | 0.0342
A40G C116G A120U | -1.72
A41C C54G U55G C57A C79G A115C | ≤ -4.2
A41C C75A C87A | ≤ -4.2
A39U G71C G84A C103U | ≤ -4.2
A40U A52C U82A C95A U144G U146G | ≤ -4.2
A40U A47G C79G C85U C114U | ≤ -4.2
A39U U101C A120U C132U U134A | ≤ -4.2
A40C C116G G117U C129U G141C | ≤ -4.2
A40G A47U G50C C93G G94A C95G A122C | ≤ -4.2
A40C A60U C72A G81C G88U G124C A147G | ≤ -4.2
A39U C85G C96A A107G | ≤ -4.2
A40C G140U | -3.39
A41C G68U G81A C96A | ≤ -4.2
A40U A97U U101C A119U A121U G133A | ≤ -4.2
A41U A66C G88A A113C G143A U146C | ≤ -4.2
A40G C85G G86U G94A U130G A142C | ≤ -4.2
A41U C43A G62A A64C C79U G80A G84U G124C U139G | ≤ -4.2
A41C A52C C103G U111A U146C | ≤ -4.2
A39G G58C C85U U151A | ≤ -4.2
A39G U61A G62C | ≤ -4.2
A41G G84A A89G C103G | -3.2

Variant | polymerase ribozyme fitness (log ratio)
A39G G88A C99U A107C C114G U139A | ≤ -4.2
A39G G59A C96G U146C | -3.67
A39U C85U | -2.27
A41G G42A G48C C93A A106C U109C A137C | ≤ -4.2
A39U U55A G83U C95G A115C C149G | ≤ -4.2
A40U C125U G128C | ≤ -4.2
A41U U55A C79U U82G G83U C85A C114A A120U | ≤ -4.2
A40G A41C C43A G83C C87G C96A | ≤ -4.2
A41G G83A U90G G136U | ≤ -4.2
A40G U56A C75A C93A G124A | ≤ -4.2
A40C C85U G133C A142G | -3.92
A41U A60G G80A U148A | ≤ -4.2
A40C A41U A73U G83A C95U A147C | ≤ -4.2
A41U G58C A91G G94C C108U U127C | ≤ -4.2
A41U A66U | ≤ -4.2
A41C C93G U144C | -3.7
A41U G50C A52U C75A C85U | ≤ -4.2
A41C G50U G74A C75G U77G C79A G88U C93U C108U A120U | ≤ -4.2
A40C G88C A107U | ≤ -4.2
A39G C105G | -3.19
A41C A49C G65C C93A G126C | ≤ -4.2
A40G A49C G59A C75G A91C C149A | ≤ -4.2
A39G A73G C76A C87U C103U U146A | ≤ -4.2
A41G G68A G84U | ≤ -4.2

Variant | polymerase ribozyme fitness (log ratio)
A41G G74C C116G | ≤ -4.2
A39U C95U C96A G124A | -3.2
A40C A49C C54A C96U C114U G126A | ≤ -4.2
A40C C87U | -0.91
A40C U135A | -0.385
A39G A40C C75G | ≤ -4.2
A40U C87U A89G | -3.2
A41C C54U C57U G140U U148A | ≤ -4.2
A40G A60G U61C G84A | -3.52
A41C A137G C149U | -2.44
A39G G83A G141C | -3.09
A39G G42C A47C G81A G133U G136A | ≤ -4.2
A40U A49C G141A | ≤ -4.2
A39U U44C U53A G62U G86A | ≤ -4.2
A39G G42A A107C | ≤ -4.2
A40G A49C C85G G92U A121U | ≤ -4.2
A39U U61C C96A | -3.93
A41C A52U C93U U102G C132A C149G | ≤ -4.2
A41G A47U U78C C79A G86C C105G | ≤ -4.2
A39U A47U G65A C87U A98C A107G G141C G152A | ≤ -4.2
A40G U134G | ≤ -4.2
A39G U77G | ≤ -4.2
A41C U53A G58A C63U G94A A107G U146A | ≤ -4.2
A40G G48U C57U G84C C87A C114G G124C G133U | ≤ -4.2

Variant | polymerase ribozyme fitness (log ratio)
A40C C96U | -0.579
A40G C85U A107C A120U U146C | ≤ -4.2
A40C U144A | -0.312
A40G U44A C87A C103U G126A A142C | ≤ -4.2
A40C G67C G68A C72G C87G G94C A107U A115U U139G | ≤ -4.2
A39U A52U U77C C79U G94A G136A | ≤ -4.2
A41C U53C G81C C114A A115U C123G | ≤ -4.2
G42A A47C U82G C96G C149G | ≤ -4.2
A40C G92A C99U C105A C129U | ≤ -4.2
A40G G124U | -2.64
A39U A52G C72A U82A G94A C123U | ≤ -4.2
A40U C87U C103G A115U C125U G133C | ≤ -4.2
A40C G80A G83A U145A G152A | ≤ -4.2
A40U G58A G94A A107U | ≤ -4.2
A41G A52C A64G C103G | ≤ -4.2
A40C A49U U55A C93A C96G A98U U144C U146G | ≤ -4.2
A39U U44A C79G C132G U139A | ≤ -4.2
A41U U56A G94C A147G A150G | ≤ -4.2
A39G G42A | -3.64
A40C A49U U56A C57A G88C U135A A137U | ≤ -4.2
A40C U55A C79U C118A | ≤ -4.2
A40G A41C G50A G128C | ≤ -4.2
A40U A106G C131U | 1.54
A40U G71U A106G A115G G133U G140A | ≤ -4.2

Variant | polymerase ribozyme fitness (log ratio)
A39U A49C C85G C87G G94C G133A U144G | ≤ -4.2
A39U C43U C85U G117U G126C C132G | ≤ -4.2
A40G U44C G46U C85U C93A U127A U148C | ≤ -4.2
A39U A60G U77A G81U C93A | ≤ -4.2
A40C U44A U61C | ≤ -4.2
A39U G67A A97G G128A U148C | ≤ -4.2
A41C G67C G68A G88C G92A A107C | ≤ -4.2
A40U C93G C125A U135G | ≤ -4.2
A40G U77C C93A U109G C116U C131G | ≤ -4.2
A40C A60G C76G C85U G124C | ≤ -4.2
A41U A49U U77G C93G C99A A142G | ≤ -4.2
A41C U53A U56G C76U G86A A138U | ≤ -4.2
A40U G84A | -0.341
A40U U77G C87U A122G | ≤ -4.2
A41G G50A C69A G81A U82C A91C | ≤ -4.2
A41U U53G G83U C93A C132G | ≤ -4.2
A39U U102A G133C | ≤ -4.2
A40U G58A C87U G143U | ≤ -4.2
A40U A60C | -1.31
A39U C43A C75G C87U C118U | ≤ -4.2
A40U C93U U101G G128U | -4.04
A40U G58C A64U C108G | ≤ -4.2
A40C U134A | -1.77
A40G G68U C76A C93U | ≤ -4.2

Variant | polymerase ribozyme fitness (log ratio)
A39U G92C U127A | ≤ -4.2
A40C C76U C93G G152A | ≤ -4.2
A40U U55A A66G U151G | ≤ -4.2
A40G G84C G86A G141A | ≤ -4.2
A41C C54A U82G G94U | -3.5
A41U C72G C96U | ≤ -4.2
A40C G50C C79U G81C C118U | ≤ -4.2
A40C G83C | 0.449
A39U G59C G83U A147U | -2.17
A40C A98G C131U U134A | -2.13
A41C U55A A97G | -0.161
A40U A64C G84A G94C A97G G141C U145G C149A | ≤ -4.2
A41C G88A A115U A138C | ≤ -4.2
A41C G42C C93U G94U A107U A110C G124U G136C A137U C149U | ≤ -4.2
A40U U55A G62U A91C C114U C116U | ≤ -4.2
A39G C75A G83A G94U G124U | ≤ -4.2
A40C G141A | 0.793
A41U C63G C85A G152U | ≤ -4.2
A40G C69G G70U G83A A150U | ≤ -4.2
A39U A47C G59U G68C C79A A98U G141U | ≤ -4.2
A41C G86U G133A U146C | ≤ -4.2
A39G A147U | -0.693
A39U C79G G84U | ≤ -4.2
